Measurements: PMC12820563, “FoxP3 forms a head-to-head dimer in vivo and stabilizes its multimerization on adjacent microsatellites”
The other results are listed elsewhere or left out.

These sequences were tested against T1, MBP-FoxP1dN (Mus musculus, UniProt P58462 326-579) (assay: PD-seq (MBP pull-down with sequencing); 20 mM Tris-HCl pH 7.5, 100 mM NaCl, 1.5 mM MgCl2, 0.4 uM protein, 0.1 uM dsDNA library, 30 min, room temperature, amylose pull-down; high values mean tight binding). Settings: protein: recombinant; tags: His6-MBP; chain copies: 2; dsDNA, one strand shown.
T1 sequence: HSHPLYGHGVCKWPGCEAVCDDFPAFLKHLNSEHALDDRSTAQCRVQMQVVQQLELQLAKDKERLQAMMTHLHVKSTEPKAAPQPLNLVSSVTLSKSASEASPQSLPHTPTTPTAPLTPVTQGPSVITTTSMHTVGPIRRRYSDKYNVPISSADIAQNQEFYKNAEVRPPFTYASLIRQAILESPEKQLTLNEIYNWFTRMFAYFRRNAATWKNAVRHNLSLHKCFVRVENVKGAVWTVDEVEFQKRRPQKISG
How it was run: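 His6-MBP-tagged mouse FoxP3 or FoxP1 fragment lacking the N-terminus, expressed in E. coli, was mixed at 0.4 µM with 0.1 µM Klenow-filled double-stranded degenerate DNA library. Incubation was 30 min at room temperature in Tris pH 7.5 buffer with NaCl and MgCl2. Complexes were caught on amylose resin and washed three times; DNA was released with proteinase K, PCR-barcoded and Illumina-sequenced. Binding is reads-per-million enrichment, pull-down over input, with replicates pooled.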

| Sequence | binding signal |
| --- | --- |
| GATGATTGTTCTCCCAGCTGATGAATTCTTTGCCTCGAGTAAACAAATTTTCCTAATCTTTCTGTTCAAGCGCCATCTAC | 0.869 RPM ratio (pull-down/input) |
| GATGATTGTTCTCCCAGCTGATGAATTTTCTGGATCGAGTAAACAAATTTTCCTAATCTTTCTGTTCAAGCGCCATCTAC | 0.821 RPM ratio (pull-down/input) |
| GATGATTGTTCTCCCAGCTGATGAATTCGGGCCCTCGAGTAAACAAATTTTCCTAATCTTTCTGTTCAAGCGCCATCTAC | 0.699 RPM ratio (pull-down/input) |
| GATGATTGTTCTCCCAGCTGATGAATTTCTTTTCTCGAGTAAACAAATTTTCCTAATCTTTCTGTTCAAGCGCCATCTAC | 0.848 RPM ratio (pull-down/input) |
| GATGATTGTTCTCCCAGCTGATGAATTGCGGGTCTCGAGTAAACAAATTTTCCTAATCTTTCTGTTCAAGCGCCATCTAC | 0.953 RPM ratio (pull-down/input) |
| GATGATTGTTCTCCCAGCTGATGAATTGGTTGGTTCGAGTAAACAAATTTTCCTAATCTTTCTGTTCAAGCGCCATCTAC | 1 RPM ratio (pull-down/input) |
| GATGATTGTTCTCCCAGCTGATGAATTAGCGGCATCGAGTAAACAAATTTTCCTAATCTTTCTGTTCAAGCGCCATCTAC | 0.992 RPM ratio (pull-down/input) |
| GATGATTGTTCTCCCAGCTGATGAATTAACCGGGTCGAGTAAACAAATTTTCCTAATCTTTCTGTTCAAGCGCCATCTAC | 0.808 RPM ratio (pull-down/input) |
| GATGATTGTTCTCCCAGCTGATGAATTTTGGCTTTCGAGTAAACAAATTTTCCTAATCTTTCTGTTCAAGCGCCATCTAC | 1 RPM ratio (pull-down/input) |
| GATGATTGTTCTCCCAGCTGATGAATTGGTGCCGTCGAGTAAACAAATTTTCCTAATCTTTCTGTTCAAGCGCCATCTAC | 0.905 RPM ratio (pull-down/input) |
| GATGATTGTTCTCCCAGCTGATGAATTAGTATGTTCGAGTAAACAAATTTTCCTAATCTTTCTGTTCAAGCGCCATCTAC | 1.19 RPM ratio (pull-down/input) |
| GATGATTGTTCTCCCAGCTGATGAATTCGCCCAATCGAGTAAACAAATTTTCCTAATCTTTCTGTTCAAGCGCCATCTAC | 0.951 RPM ratio (pull-down/input) |
| GATGATTGTTCTCCCAGCTGATGAATTTCATTCTTCGAGTAAACAAATTTTCCTAATCTTTCTGTTCAAGCGCCATCTAC | 0.823 RPM ratio (pull-down/input) |
| GATGATTGTTCTCCCAGCTGATGAATTCGGAAATTCGAGTAAACAAATTTTCCTAATCTTTCTGTTCAAGCGCCATCTAC | 0.869 RPM ratio (pull-down/input) |
| GATGATTGTTCTCCCAGCTGATGAATTTCTTTCCTCGAGTAAACAAATTTTCCTAATCTTTCTGTTCAAGCGCCATCTAC | 0.824 RPM ratio (pull-down/input) |
| GATGATTGTTCTCCCAGCTGATGAATTAGCGCTGTCGAGTAAACAAATTTTCCTAATCTTTCTGTTCAAGCGCCATCTAC | 0.866 RPM ratio (pull-down/input) |

| Sequence | binding signal |
| --- | --- |
| GATGATTGTTCTCCCAGCTGATGAATTCTCACCCTCGAGTAAACAAATTTTCCTAATCTTTCTGTTCAAGCGCCATCTAC | 0.781 RPM ratio (pull-down/input) |
| GATGATTGTTCTCCCAGCTGATGAATTGTAAGTATCGAGTAAACAAATTTTCCTAATCTTTCTGTTCAAGCGCCATCTAC | 1.24 RPM ratio (pull-down/input) |
| GATGATTGTTCTCCCAGCTGATGAATTTTAAGCCTCGAGTAAACAAATTTTCCTAATCTTTCTGTTCAAGCGCCATCTAC | 0.766 RPM ratio (pull-down/input) |
| GATGATTGTTCTCCCAGCTGATGAATTAAACCTATCGAGTAAACAAATTTTCCTAATCTTTCTGTTCAAGCGCCATCTAC | 0.943 RPM ratio (pull-down/input) |
| GATGATTGTTCTCCCAGCTGATGAATTCTGTAACTCGAGTAAACAAATTTTCCTAATCTTTCTGTTCAAGCGCCATCTAC | 0.979 RPM ratio (pull-down/input) |
| GATGATTGTTCTCCCAGCTGATGAATTTCCACCATCGAGTAAACAAATTTTCCTAATCTTTCTGTTCAAGCGCCATCTAC | 0.912 RPM ratio (pull-down/input) |
| GATGATTGTTCTCCCAGCTGATGAATTGGCTACATCGAGTAAACAAATTTTCCTAATCTTTCTGTTCAAGCGCCATCTAC | 0.93 RPM ratio (pull-down/input) |
| GATGATTGTTCTCCCAGCTGATGAATTCCTGGATTCGAGTAAACAAATTTTCCTAATCTTTCTGTTCAAGCGCCATCTAC | 0.881 RPM ratio (pull-down/input) |
| GATGATTGTTCTCCCAGCTGATGAATTGATTTCCTCGAGTAAACAAATTTTCCTAATCTTTCTGTTCAAGCGCCATCTAC | 1.17 RPM ratio (pull-down/input) |
| GATGATTGTTCTCCCAGCTGATGAATTTGCTATATCGAGTAAACAAATTTTCCTAATCTTTCTGTTCAAGCGCCATCTAC | 1.07 RPM ratio (pull-down/input) |
| GATGATTGTTCTCCCAGCTGATGAATTTATAACCTCGAGTAAACAAATTTTCCTAATCTTTCTGTTCAAGCGCCATCTAC | 1.05 RPM ratio (pull-down/input) |
| GATGATTGTTCTCCCAGCTGATGAATTGAAAACCTCGAGTAAACAAATTTTCCTAATCTTTCTGTTCAAGCGCCATCTAC | 0.844 RPM ratio (pull-down/input) |
| GATGATTGTTCTCCCAGCTGATGAATTGAGTCTTTCGAGTAAACAAATTTTCCTAATCTTTCTGTTCAAGCGCCATCTAC | 0.938 RPM ratio (pull-down/input) |
| GATGATTGTTCTCCCAGCTGATGAATTCAACTAGTCGAGTAAACAAATTTTCCTAATCTTTCTGTTCAAGCGCCATCTAC | 0.877 RPM ratio (pull-down/input) |
| GATGATTGTTCTCCCAGCTGATGAATTAGTCCGATCGAGTAAACAAATTTTCCTAATCTTTCTGTTCAAGCGCCATCTAC | 0.851 RPM ratio (pull-down/input) |
| GATGATTGTTCTCCCAGCTGATGAATTCGTTTTTTCGAGTAAACAAATTTTCCTAATCTTTCTGTTCAAGCGCCATCTAC | 0.928 RPM ratio (pull-down/input) |
